Reference: PubChem BioAssay AID624151 (Broad Institute, 2012)
Screen size: about 28,000 compounds; about 410 (1.5%) were called active. This list was built around the results that the source calls inconclusive (neither active nor inactive); the mix of calls is not that of the screen. No stated cut-off is given here; in the data, active means activation above about 52%; inconclusive means no clear call, values can overlap the other calls; inactive means below that.

Test: mutant p53 pathway re-activators, primary screen, cell-based, SW480, luciferase, single point, HTS (AID 624151)
Conditions: SW480 PUMA-promoter luciferase, p53 mutant reactivation; at 9.98 µM; stronger effect = higher value

SMILES	activation
O=C(CSc1nnc(-c2cccc([N+](=O)[O-])c2)n1-c1ccccc1)c1ccc(Br)cc1	inconclusive: 52%
CCc1ccc(OCC(=O)Nc2ccc3oc(-c4ccccc4)nc3c2)cc1	inconclusive: 53.8%
O=C(COc1ccc(Cl)cc1CO)Nc1ccc(F)cc1	active: 69.3%
O=C(CSc1nnc2ccc3ccccc3n12)Nc1ccc2c(c1)OCCO2	active: 64.7%
Cc1cccc(NC(=O)CSc2nnc(-c3ccc(N)cc3)n2C)c1	inactive: -18.8%
CC(=O)c1ccc(-n2c(CCC(=O)O)ccc2-c2cccs2)cc1	inconclusive: 56.9%
Cc1ccc(OCC(=O)Nc2ccc3oc(-c4ccc(F)cc4)nc3c2)cc1C	inconclusive: 53.9%
COc1ccc([N+](=O)[O-])cc1NC(=O)COc1ccc(C(C)(C)C)cc1	inconclusive: 54%
CCN(CC)S(=O)(=O)c1ccc(Cl)c(C(=O)Oc2ccc(C)cc2-n2nc3ccccc3n2)c1	inconclusive: 53.2%
CCOC(=O)Cc1cc(=O)[nH]c(Nc2nc3ccccc3o2)n1	inconclusive: 52.4%
COc1cccc2cc(C(=O)NCc3ccccn3)c(=O)oc12	active: 84.2%
Cc1ccc(-c2nc(Nc3ccccc3F)sc2C)cc1	inconclusive: 61.1%
N#Cc1ccccc1OCCCn1cnc2ccccc21	inconclusive: 51%
O=C(CN1C(=O)c2ccccc2C1=O)Nc1ccc2c(c1)C(=O)NC2=O	inactive: 3.3%
FC(F)(F)c1ccnc(Oc2ccc(C3=NCCS3)cc2)c1	inconclusive: 53.7%
O=C(COc1ccccc1Cl)Nc1ccccc1NC(=O)c1ccco1	inconclusive: 50.6%
C[C@H]1CN([C@@H](C)CO)C(=O)Cc2cc(NS(=O)(=O)c3ccc(Cl)cc3)ccc2O[C@@H]1CN(C)CC1CCCCC1	inactive: -0.661%
O=C(CSc1nnc(-c2ccc(Cl)cc2)o1)Nc1ccccc1	inconclusive: 58.4%
O=C(CSc1ncccn1)Nc1ccc(Cl)cc1Cl	active: 134%
CC(=O)Nc1ccc(C(=O)CSc2nnc(-c3ccccc3Cl)o2)cc1	inconclusive: 65.7%
Cc1nnc(SCc2cc(=O)[nH]c(Nc3nc(C)c4ccccc4n3)n2)s1	inactive: 20.3%
O=C(COc1ccc(Cl)cc1Cl)Nc1ccccc1CO	inconclusive: 51.9%
NC(=O)c1ccccc1NC(=O)COc1ccc2oc3c(c2c1)CCCC3	inconclusive: 51.1%
Cc1nc2cc(NC(=O)NCc3ccco3)ccc2n1C	inconclusive: 57%
O=C(OC1OC(CO)C(O)C(O)C1O)c1c(O)cc(O)cc1/C=C/c1ccccc1 (stereo not given)	inconclusive: 57.6%
COC(=O)C1C(=O)c2c([nH]c(C(=O)OC(C)C)c2C)CC1C (stereo not given)	inconclusive: 50.3%
Cc1cc2nc(SCc3nc4ccccc4[nH]3)[nH]c2cc1C	inconclusive: 50.4%
Cc1csc2c(SCC(O)C(F)(F)F)ncnc12 (stereo not given)	active: 56.4%

SMILES	activation
Cc1cc(C)cc(NC(=O)CN(c2ccccc2F)S(C)(=O)=O)c1	inactive: -1.63%
COC(=O)c1sccc1NC(=O)COc1cc(C)ccc1Cl	inconclusive: 55.9%
Cc1ccc2oc(-c3cc(NC(=O)COc4ccccc4)ccc3Cl)nc2c1	inconclusive: 55.4%
O=C(CC1(O)C(=O)Nc2ccccc21)c1ccc(NC(=O)C2CC2)cc1 (stereo not given)	inconclusive: 54.1%
Cn1c(NCc2cc(Br)ccc2O)nc2ccccc21	inconclusive: 54.1%
Cn1c(SCC(=O)Nc2cccc(C(F)(F)F)c2)nnc1-c1ccc(F)cc1	inactive: -16.4%
C[C@H](CO)N1C[C@H](C)[C@H](CN(C)Cc2ccncc2)OCCCC[C@H](C)Oc2ccc(NC(=O)Nc3ccccc3)cc2C1=O	inactive: -6.23%
O=c1cc(-c2ccccc2)oc2ccc(O)cc12	inconclusive: 55.9%
O=C(CSc1nnc(-c2ccc(Br)cc2)o1)c1ccc([N+](=O)[O-])cc1	inactive: -58.3%
Cc1ccc(S(=O)(=O)n2nc(-c3ccc(Cl)cc3)nc2NCc2ccco2)cc1	inconclusive: 53.3%
Cc1nn2c3ccccc3n(C)c2c1C(=O)CN1CCOCC1	inconclusive: 51.2%
O=C1CCCN1CCCNc1ncnc2c1cnn2-c1ccc(Cl)cc1	inconclusive: 57.7%
Nc1nnc(SCC(=O)Nc2ccc(Br)cc2Cl)n1-c1ccccc1	inconclusive: 50.1%
COc1ccc(S(=O)(=O)N(C)CC(=O)Nc2ccccc2Br)cc1C	inactive: -2.9%
CS(=O)(=O)N(CC(=O)NC1CCCCC1)c1ccc(Cl)cc1Cl	inactive: -5.69%
NC(=O)c1c(NC(=O)COc2ccc3ccccc3c2)sc2c1CCCCCC2	inactive: -7.06%
CN(C)/C=C1/Nc2ccccc2C1=O	inconclusive: 50.7%
O=C(CSc1ncnc2sc(-c3ccccc3)cc12)NC1CCCCC1	inactive: -30.8%
O=C(CSc1nnc(-c2cccc(Cl)c2)o1)Nc1ccccc1	inconclusive: 59.3%
COc1ccc2oc(-c3ccccc3)c(O)c(=O)c2c1	inconclusive: 53.5%
O=C(COc1ccccc1Cl)Nc1cccc(NC(=O)c2ccco2)c1	inconclusive: 53.8%
C[C@H]1[C@H](C)CC[C@]2(C(=O)O)CC[C@]3(C(=O)O)C(=CCC4[C@@]5(C)CC[C@H](O[C@@H]6O[C@@H](C)[C@H](O)[C@@H](O)[C@H]6O)C(C)(C)C5CC[C@]43C)[C@H]12 (stereo not given in full)	inactive: 10%
Cc1ccc(NC(=O)COc2ccccc2)c(NC(=O)C2CC2)c1	inconclusive: 56.3%
C=C(CO)C1Cc2c(ccc3c(=O)c4c(oc23)COc2cc(OC)c(OC)cc2-4)O1 (stereo not given)	inconclusive: 56.4%
O=C(NCc1ccccn1)c1ccccc1O	inconclusive: 55.7%
Cc1ccc(-c2noc(CSc3nc(C)cc(C)n3)n2)cc1	active: 63.3%
Cc1cc(=O)oc2cc(NC(=S)NCCCN3CCCC3=O)ccc12	inactive: 38.7%
